The whole screen tested about 310,000 compounds, of which about 14,000 (4.5%) showed an effect of 50% or more. The effect is printed as a negative number. Some of the results follow.
The compounds below were run against human ether-à-go-go-related gene (hERG) potassium channel (human, UniProt Q12809) (assay: primary screen, population patch clamp on CHO cells stably expressing hERG).
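Further: peak tail current of the secondary pulse compared with the same well before compound.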

human ether-à-go-go-related gene (hERG) potassium channel, sequence (Q12809 whole entry, looked up): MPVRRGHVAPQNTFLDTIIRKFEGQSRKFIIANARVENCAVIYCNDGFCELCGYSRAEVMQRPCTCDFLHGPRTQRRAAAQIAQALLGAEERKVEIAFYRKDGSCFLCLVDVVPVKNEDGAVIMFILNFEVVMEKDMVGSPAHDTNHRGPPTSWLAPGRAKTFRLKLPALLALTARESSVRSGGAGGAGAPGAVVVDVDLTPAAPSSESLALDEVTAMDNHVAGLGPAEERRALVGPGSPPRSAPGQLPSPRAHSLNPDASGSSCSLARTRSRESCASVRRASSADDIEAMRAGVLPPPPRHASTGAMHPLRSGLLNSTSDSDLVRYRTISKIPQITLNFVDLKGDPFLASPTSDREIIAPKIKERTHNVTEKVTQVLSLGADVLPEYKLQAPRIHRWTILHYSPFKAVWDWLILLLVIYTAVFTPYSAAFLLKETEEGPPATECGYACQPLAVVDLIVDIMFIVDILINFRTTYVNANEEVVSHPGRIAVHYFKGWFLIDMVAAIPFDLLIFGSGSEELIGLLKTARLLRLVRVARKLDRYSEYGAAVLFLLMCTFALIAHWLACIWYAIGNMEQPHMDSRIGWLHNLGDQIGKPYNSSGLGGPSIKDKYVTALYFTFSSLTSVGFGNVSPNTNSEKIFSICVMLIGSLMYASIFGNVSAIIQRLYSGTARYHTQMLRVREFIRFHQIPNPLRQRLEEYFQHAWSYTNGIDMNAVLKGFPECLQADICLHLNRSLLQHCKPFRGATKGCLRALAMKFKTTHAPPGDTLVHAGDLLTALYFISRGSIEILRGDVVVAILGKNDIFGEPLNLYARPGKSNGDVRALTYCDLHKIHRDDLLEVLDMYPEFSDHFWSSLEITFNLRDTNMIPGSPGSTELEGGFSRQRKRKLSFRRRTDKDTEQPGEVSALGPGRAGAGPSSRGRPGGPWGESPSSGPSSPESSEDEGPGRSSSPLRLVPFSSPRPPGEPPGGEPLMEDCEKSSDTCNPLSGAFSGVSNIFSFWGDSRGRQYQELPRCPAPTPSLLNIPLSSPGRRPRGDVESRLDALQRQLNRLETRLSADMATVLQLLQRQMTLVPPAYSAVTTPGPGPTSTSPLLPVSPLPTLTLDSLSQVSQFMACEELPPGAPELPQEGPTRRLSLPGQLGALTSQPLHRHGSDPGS

With `CCOC(=O)N1CCc2c(sc3ncn(Cc4ccc(F)cc4)c(=O)c23)C1` as the compound, how does the “hERG current change (%, negative = inhibition) at 10uM” value read?
The value was -45%.

How did the “hERG current change (%, negative = inhibition) at 10uM” value turn out when `CC(=O)Oc1ccc(C(=O)Nc2ccccc2NC(=O)c2ccc(OC(C)=O)cc2)cc1` was run?
The value was -9.19%.

With `O=C(COC(=O)COc1ccc(Br)cc1)NCc1ccccc1` as the compound, how does the “hERG current change (%, negative = inhibition) at 10uM” value read?
Its value is 6.35%.

`COc1cc(OC)c(NS(=O)(=O)c2c(C(=O)N3CCCCC3)c(C)n(C)c2C)cc1Cl` was tested. Which “hERG current change (%, negative = inhibition) at 10uM” value did it give?
The value was 5.91%.

How did the “hERG current change (%, negative = inhibition) at 10uM” value turn out when `Cc1cc(NN)nc(NS(=O)(=O)c2ccccc2Cl)n1` was run?
The value was 12.7%.

How did the “hERG current change (%, negative = inhibition) at 10uM” value turn out when `Cc1cc2ccccc2n2c(SCC(=O)NCc3cccs3)nnc12` was run?
Its value is -11.5%.

For `CCOC(=O)N1CCN(C(=O)c2ccc(Oc3ccc([N+](=O)[O-])cc3)cc2)CC1`, which “hERG current change (%, negative = inhibition) at 10uM” value is on record?
Its value is -68.3%.

For `COc1ccc(CC(=O)NCCCCc2ccccc2)cc1OC`, which “hERG current change (%, negative = inhibition) at 10uM” value is on record?
The value was 4.21%.

Which “hERG current change (%, negative = inhibition) at 10uM” value does the source give for `CCc1cc(=O)oc2cc(OCC(=O)O)c(Cl)cc12` here?
Its value is 3.19%.

Which “hERG current change (%, negative = inhibition) at 10uM” value does the source give for `CN(C)c1ccc(CNS(=O)(=O)c2ccc3c(c2)C(C)(C)C(=O)N3C)cc1` here?
Its value is 5.98%.

How did the “hERG current change (%, negative = inhibition) at 10uM” value turn out when `Cc1ccccc1C(=O)c1cccn1CC(=O)NCCN1CCN(c2cccc(C)c2C)CC1` was run?
Its value is -69.5%.

`O=C(NC12CC3CC(CC(C3)C1)C2)c1ccc(-c2ccc(Cl)cc2)o1` was tested. Which “hERG current change (%, negative = inhibition) at 10uM” value did it give?
The value was -11.8%.

`C/C(=N\NC(=O)c1cccc(S(=O)(=O)N2CCOCC2)c1)c1ccc(OC(F)F)cc1` was tested. Which “hERG current change (%, negative = inhibition) at 10uM” value did it give?
Its value is -18.8%.

With `COc1ccccc1N(C)S(=O)(=O)c1ccc(C(=O)OCC(=O)N(C)c2ccccc2)cc1` as the compound, how does the “hERG current change (%, negative = inhibition) at 10uM” value read?
Its value is 12.6%.

Which “hERG current change (%, negative = inhibition) at 10uM” value does the source give for `CC1=C(C(=O)NCCN2CCN(C)CC2)C2(CCC(C)CC2)OC1=O` (stereo not shown) here?
The value was 6.17%.

With `Cc1cc(Cl)ccc1NC(=O)CN(C)C1=NS(=O)(=O)c2ccccc21` as the compound, how does the “hERG current change (%, negative = inhibition) at 10uM” value read?
The value was 4.17%.

Which “hERG current change (%, negative = inhibition) at 10uM” value does the source give for `COc1ccc(C(=O)NNC(=O)c2ccc(S(=O)(=O)N3CCOCC3)cc2)cc1` here?
The value was 20%.

How did the “hERG current change (%, negative = inhibition) at 10uM” value turn out when `O=C(NCCNc1ccc([N+](=O)[O-])cc1)c1cccc2c(Br)cccc12` was run?
The value was -23%.

`NC(=O)c1sc2nc(-c3cccs3)ccc2c1N` was tested. Which “hERG current change (%, negative = inhibition) at 10uM” value did it give?
The value was 8.15%.

`CC1(C)CC(=O)C=C(NNC(=O)c2ccc(N)cc2)C1` was tested. Which “hERG current change (%, negative = inhibition) at 10uM” value did it give?
The value was -5.53%.

Which “hERG current change (%, negative = inhibition) at 10uM” value does the source give for `Cc1nc(S(=O)(=O)N2CCN(C3c4ccccc4-c4ccccc43)CC2)cn1C` here?
The value was 13.9%.

For `Cc1cccc(CCN(CC(=O)NCc2ccc(F)cc2)C(=O)c2csnn2)c1`, which “hERG current change (%, negative = inhibition) at 10uM” value is on record?
Its value is -29%.

With `CCCCCCCCn1c(=O)c(C(=O)OC)c(N)c2ccccc21` as the compound, how does the “hERG current change (%, negative = inhibition) at 10uM” value read?
Its value is 3.02%.

Which “hERG current change (%, negative = inhibition) at 10uM” value does the source give for `Cc1cnc(C(=O)OCC(=O)Nc2ccccc2-c2ccccc2)cn1` here?
Its value is 8.66%.

How did the “hERG current change (%, negative = inhibition) at 10uM” value turn out when `CCCOc1ccc(N2C(=O)CC(N(CCc3ccc(OC)c(OC)c3)C(=S)Nc3ccccc3)C2=O)cc1` (stereo not shown) was run?
The value was 14.5%.

For `COC(=O)c1ccc(C(=O)OC)c(NC(=O)COc2ccccc2OC)c1`, which “hERG current change (%, negative = inhibition) at 10uM” value is on record?
Its value is 7.26%.

For `Cc1sc2nc(CSCC(=O)N(C)c3ccccc3)[nH]c(=O)c2c1C`, which “hERG current change (%, negative = inhibition) at 10uM” value is on record?
Its value is -3.48%.

How did the “hERG current change (%, negative = inhibition) at 10uM” value turn out when `CN(C(=O)c1ccc(OC2CCN(Cc3ccccn3)CC2)cc1)C1CCCCC1` was run?
The value was -9.82%.

With `COc1ccc(Cl)cc1NC(=O)CCCN1C(=O)CCC1=O` as the compound, how does the “hERG current change (%, negative = inhibition) at 10uM” value read?
Its value is 14.4%.

Which “hERG current change (%, negative = inhibition) at 10uM” value does the source give for `CCOc1ccc(NC(=O)C(CC)n2nc(C)c3c(C)n(-c4ccccc4)nc3c2=O)cc1` (stereo not shown) here?
Its value is -30.1%.

With `Cl.Fc1ccc(OCCCCN2CCOCC2)cc1` as the compound, how does the “hERG current change (%, negative = inhibition) at 10uM” value read?
The value was -4.81%.

`COc1ccccc1OCCCC(=O)Nc1ccc2c(c1)OCCO2` was tested. Which “hERG current change (%, negative = inhibition) at 10uM” value did it give?
The value was 5.75%.

Which “hERG current change (%, negative = inhibition) at 10uM” value does the source give for `Cc1c(C)n(CC(O)CNCCO)c2ccccc12.O=C(O)C(=O)O` (stereo not shown) here?
Its value is 5.33%.

`COc1cccc(/C=N/n2c(C3CCCCC3)n[nH]c2=S)c1O` was tested. Which “hERG current change (%, negative = inhibition) at 10uM” value did it give?
The value was 1.87%.

With `C/C(=N/Nc1ccc([N+](=O)[O-])cc1)c1c[nH]c2ccccc12` as the compound, how does the “hERG current change (%, negative = inhibition) at 10uM” value read?
Its value is 27.2%.

With `O=C(N/N=C/c1ccccn1)c1cc(-c2ccc(Br)cc2)nc2ccccc12` as the compound, how does the “hERG current change (%, negative = inhibition) at 10uM” value read?
Its value is 16.9%.

For `CC(=O)Nc1ccc(NC(=O)c2cc[n+]([O-])cc2)cc1`, which “hERG current change (%, negative = inhibition) at 10uM” value is on record?
The value was 25.2%.

Which “hERG current change (%, negative = inhibition) at 10uM” value does the source give for `Nc1ccccc1C(=O)Nc1nccs1` here?
Its value is 7.16%.

`CCOC(=O)C(=O)Nc1cc(C)nn1-c1nc2ccccc2[nH]1` was tested. Which “hERG current change (%, negative = inhibition) at 10uM” value did it give?
Its value is 8.82%.

With `COc1ccc(CCN2C(=O)C(C)=C(C)C2=O)cc1OC` as the compound, how does the “hERG current change (%, negative = inhibition) at 10uM” value read?
The value was 11.7%.

Which “hERG current change (%, negative = inhibition) at 10uM” value does the source give for `COc1ccc(CN2C(=O)c3ccccc3C(/C=N\OCc3ccc(F)cc3)C2=O)cc1` (stereo not shown) here?
Its value is -2.55%.

How did the “hERG current change (%, negative = inhibition) at 10uM” value turn out when `COc1ccc(CCCc2nnc(SCC(=O)Nc3nc(C)cs3)n2C)cc1C` was run?
Its value is -10.7%.

How did the “hERG current change (%, negative = inhibition) at 10uM” value turn out when `CN1C(=S)SC(C)(C)C1/[N+]([O-])=C/c1cccnc1` (stereo not shown) was run?
The value was 11.9%.

How did the “hERG current change (%, negative = inhibition) at 10uM” value turn out when `Cn1c(=O)[nH]c(=O)c2c1nc(N1CCN(C(c3ccccc3)c3ccccc3)CC1)n2CCO` was run?
The value was 8.58%.

With `Cn1c(SCC(=O)NC2CCCCC2)nnc1-c1cccc(N)c1` as the compound, how does the “hERG current change (%, negative = inhibition) at 10uM” value read?
Its value is 7.53%.

With `Cc1cccc(NC(=S)N2CCCN(c3ncccc3[N+](=O)[O-])CC2)c1` as the compound, how does the “hERG current change (%, negative = inhibition) at 10uM” value read?
The value was -16.7%.

With `CCO[C@@H]1OC(C(=O)N2CCN(Cc3ccc4c(c3)OCO4)CC2)=C[C@H](C2CCCCC2)[C@H]1CCCO` as the compound, how does the “hERG current change (%, negative = inhibition) at 10uM” value read?
Its value is -17.8%.

`CC1CCCC(NC(=O)COC(=O)c2c[nH]c(=O)[nH]c2=O)C1C` (stereo not shown) was tested. Which “hERG current change (%, negative = inhibition) at 10uM” value did it give?
The value was 5.59%.

For `CC(=O)Nc1nc2nc(-c3ccccc3)cc(-c3ccccc3)n2n1`, which “hERG current change (%, negative = inhibition) at 10uM” value is on record?
The value was -18.5%.

`Clc1ccc(Nc2ncn[nH]2)c(Cl)c1` was tested. Which “hERG current change (%, negative = inhibition) at 10uM” value did it give?
Its value is 9.46%.

Which “hERG current change (%, negative = inhibition) at 10uM” value does the source give for `CC1=[N+](C)N(c2ccccc2)C(=O)C1N=Cc1ccccc1Cl` (stereo not shown) here?
The value was -2.36%.

`Cc1nc(C(=O)NCc2ccccc2)sc1C1(C)CC(c2ccccc2)=NO1` (stereo not shown) was tested. Which “hERG current change (%, negative = inhibition) at 10uM” value did it give?
Its value is -15.6%.

With `CCCn1c(SCC(=O)N(C)CC(=O)Nc2ccc(C)cc2)n[nH]c1=O` as the compound, how does the “hERG current change (%, negative = inhibition) at 10uM” value read?
The value was -3.2%.

For `O=C(O)CCCCCNC(=O)c1ccccc1Br`, which “hERG current change (%, negative = inhibition) at 10uM” value is on record?
The value was 16.4%.

For `Cc1ccccc1Nc1nc(N)nc(CSc2nc3ccccc3c(=O)n2CCCO)n1`, which “hERG current change (%, negative = inhibition) at 10uM” value is on record?
The value was -18.8%.

— PMC4336329 (PLoS ONE, 2015)
